We go through three molecules from patent US6420345 (dated 2002).

Among the targets are CDK2/cyclin E complex (UniProt P24941; P24864); CDC2/cyclin B complex (UniProt P06493; P14635); CDK4/cyclin D1 complex (UniProt P11802 1-303; P24385).
What all share (assay): in vitro kinase assay

Chain of CDC2/cyclin B complex (P06493 whole entry, chain 1 of 2): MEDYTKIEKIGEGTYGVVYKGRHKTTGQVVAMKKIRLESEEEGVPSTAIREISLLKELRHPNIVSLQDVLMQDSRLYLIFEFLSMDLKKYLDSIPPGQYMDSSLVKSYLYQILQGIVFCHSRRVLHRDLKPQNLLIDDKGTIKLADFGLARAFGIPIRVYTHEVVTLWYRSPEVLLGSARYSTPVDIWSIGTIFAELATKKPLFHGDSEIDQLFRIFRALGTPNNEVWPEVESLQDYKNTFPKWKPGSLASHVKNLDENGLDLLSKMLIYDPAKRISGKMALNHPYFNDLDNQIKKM
Chain of CDC2/cyclin B complex (P14635 whole entry, chain 2 of 2, further chain): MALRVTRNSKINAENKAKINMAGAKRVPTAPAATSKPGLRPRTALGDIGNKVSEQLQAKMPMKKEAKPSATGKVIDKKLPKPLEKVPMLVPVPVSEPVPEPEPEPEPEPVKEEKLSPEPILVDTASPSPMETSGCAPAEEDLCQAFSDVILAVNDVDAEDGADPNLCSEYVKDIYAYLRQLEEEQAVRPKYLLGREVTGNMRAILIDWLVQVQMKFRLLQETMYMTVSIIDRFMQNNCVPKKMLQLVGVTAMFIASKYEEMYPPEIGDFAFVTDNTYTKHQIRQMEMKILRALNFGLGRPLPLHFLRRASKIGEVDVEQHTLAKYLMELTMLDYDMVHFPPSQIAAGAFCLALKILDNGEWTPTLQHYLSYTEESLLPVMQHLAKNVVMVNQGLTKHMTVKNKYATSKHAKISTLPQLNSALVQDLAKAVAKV
Chain of CDK4/cyclin D1 complex (P11802 whole entry, chain 1 of 2): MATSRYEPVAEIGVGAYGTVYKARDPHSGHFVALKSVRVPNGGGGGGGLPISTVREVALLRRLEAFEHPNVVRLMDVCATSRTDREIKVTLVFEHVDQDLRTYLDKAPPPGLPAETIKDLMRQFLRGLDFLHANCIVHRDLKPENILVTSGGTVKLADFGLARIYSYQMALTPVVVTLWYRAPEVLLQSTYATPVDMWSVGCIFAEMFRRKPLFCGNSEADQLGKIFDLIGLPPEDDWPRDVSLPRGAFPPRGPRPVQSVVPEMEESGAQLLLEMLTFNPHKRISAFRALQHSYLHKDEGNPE
Chain of CDK4/cyclin D1 complex (P24385 whole entry, chain 2 of 2, further chain): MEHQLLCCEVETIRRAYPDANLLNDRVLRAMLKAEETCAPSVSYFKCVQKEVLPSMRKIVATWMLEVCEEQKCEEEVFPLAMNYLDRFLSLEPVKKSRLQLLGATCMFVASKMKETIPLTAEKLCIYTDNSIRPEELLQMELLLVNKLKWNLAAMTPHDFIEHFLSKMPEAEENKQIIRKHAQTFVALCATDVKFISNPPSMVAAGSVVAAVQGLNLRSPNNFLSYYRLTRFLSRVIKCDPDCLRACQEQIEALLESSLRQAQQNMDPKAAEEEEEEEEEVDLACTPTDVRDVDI
Chain of CDK2/cyclin E complex (P24864 16-410, one chain of several): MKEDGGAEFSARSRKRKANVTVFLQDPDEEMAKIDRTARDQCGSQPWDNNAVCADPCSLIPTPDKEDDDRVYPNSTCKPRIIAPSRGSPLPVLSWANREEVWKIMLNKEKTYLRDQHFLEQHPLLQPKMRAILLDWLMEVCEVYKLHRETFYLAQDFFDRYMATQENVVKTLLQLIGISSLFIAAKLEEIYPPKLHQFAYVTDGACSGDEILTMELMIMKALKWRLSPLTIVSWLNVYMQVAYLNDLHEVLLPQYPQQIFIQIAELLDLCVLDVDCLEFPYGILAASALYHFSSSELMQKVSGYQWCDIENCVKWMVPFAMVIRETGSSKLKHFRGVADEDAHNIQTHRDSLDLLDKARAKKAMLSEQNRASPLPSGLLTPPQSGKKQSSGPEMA

B1: W7 (other)
chain: MGYPYDVPDYASLERMDARQA[about 80 residues not shown]QDVSGSRPAAPLIGAPANSEDTHLVDPKTDPSDSQTGLAEQCAGIRKRPATDDSSTQNKRANRTEENVSDGGGGGSGGGGSGGGGSVEDPAAGSSMEPSADWLATAAARGRVEEVRALLEAGALPNAPNSYGRRPIQVMMMGSARVAELLLLHGAEPNCADPATLTRPVHDAAREGFLDTLVVLHRAGARLDVRDAWGLPVDLAEELGHRDVARYLRAAAGGTRGSNHARIDAAEGPSDIPD
Take B1: the IC50 in the test with CDK2/cyclin E complex was 2.6 nM; with CDC2/cyclin B complex, 9.2 nM; with CDK4/cyclin D1 complex, 16 nM.

B2: W5 (protein)
chain: MGYPYDVPDYADPAAGSSMEPSADWLATAAARGRVEEVRALLEAGALPNAPNSYGRRPIQVMMMGSARVAELLLLHGAEPNCADPATLTRPVHDAAREGFLDTLVVLHRAGARLDVRDAWGRLPVDLAEELGHRDVARYLRAAAGGTRGSNHARIDAAEGPSDIPDGGGGSGGGGSGGGGSV[about 200 residues not shown]
Regarding B2, the IC50 with CDK2/cyclin E complex came out at 11 nM; in the test with CDC2/cyclin B complex, 18 nM; with CDK4/cyclin D1 complex it was 44 nM.

B3: W3 (other)
chain: [about 200 residues not shown]GGGGSGGGGSGGGGSEFCGRACARRLRRGESMQRAAGSSMEPSADWLATAAARGRVEEVRALLEAVALPNAPNSYGRRPIQVMMMGSARVAELLLLHGAEPNCADPATLTRPVHDAAREGFLDTLVVLHRAGARLDVRDAWGRLPVDLAEELGHRDVARYLRAAAGGTRGSNHARIDAAEGPSDIPD
As to B3, the IC50 with CDK2/cyclin E complex came to 3 nM; with CDC2/cyclin B complex, 18 nM; in the test with CDK4/cyclin D1 complex, 17 nM.
